# Source: the antibiotic and cytotoxicity screens of Wong et al. (2023)
# This is one part of the list.
# Columns and labels:
# HSkMC = human skeletal muscle cells; experiment: cytotoxicity call (relative viability < 0.9); conditions: 10 µM
# HepG2 = experiment: cytotoxicity call (relative viability < 0.9); conditions: 10 µM
# S. aureus RN4220 = experiment: growth inhibition call (relative growth <= 0.2); conditions: 50 µM
Compound,cytotoxicity call (HSkMC),cytotoxicity call (HepG2),growth inhibition call (S. aureus RN4220)
Cc1ccc(S(=O)(=O)N(C)C[C@@H]2Oc3ccc(NS(C)(=O)=O)cc3CC(=O)N([C@@H](C)CO)C[C@@H]2C)cc1,inactive,inactive,inactive
C[C@@H]1CCCCO[C@@H](CN(C)S(=O)(=O)c2cn(C)cn2)[C@H](C)CN([C@@H](C)CO)C(=O)c2cc(NS(=O)(=O)c3cccs3)ccc2O1,inactive,inactive,inactive
Cc1cc(C(C)(C)C)c(O)c(C(C)(C)C)c1,active,active,inactive
O=c1cc(-c2ccc(O)cc2)oc2ccc(O)cc12,inactive,inactive,inactive
COc1ccc(S(=O)(=O)Nc2ccc3c(c2)C(=O)N([C@@H](C)CO)C[C@@H](C)[C@H](CN(C)S(C)(=O)=O)OCCCC[C@@H](C)O3)cc1,inactive,inactive,inactive
C[C@H]1CN([C@@H](C)CO)C(=O)Cc2cc(NC(=O)Nc3cccc4ccccc34)ccc2O[C@@H]1CN(C)Cc1ccc(C(F)(F)F)cc1,inactive,inactive,inactive
C[C@@H]1CN([C@@H](C)CO)C(=O)c2cccc(NS(=O)(=O)c3ccc(Cl)cc3)c2O[C@@H]1CN(C)Cc1ccc(Oc2ccccc2)cc1,inactive,inactive,inactive
C[C@H](CO)N1C[C@H](C)[C@@H](CN(C)Cc2ccc(C(=O)O)cc2)Oc2ccc(NS(=O)(=O)c3cn(C)cn3)cc2CC1=O,inactive,inactive,inactive
COc1ccc(S(=O)(=O)N(C)C[C@@H]2Oc3c(NC(=O)c4ccncc4)cccc3C(=O)N([C@@H](C)CO)C[C@@H]2C)cc1,inactive,inactive,inactive
Nc1nc(=O)c2ncn([C@@H]3O[C@H](CO)[C@@H](O)[C@H]3O)c2[nH]1,inactive,inactive,inactive
C[C@H](CO)N1C[C@H](C)[C@@H](CN(C)C(=O)Nc2ccccc2C(F)(F)F)OCc2cn(nn2)CCCC1=O,inactive,inactive,inactive
C[C@@H]1CN([C@@H](C)CO)C(=O)c2cc(NS(C)(=O)=O)ccc2O[C@H]1CN(C)Cc1ccc(C(=O)O)cc1,inactive,inactive,inactive
O=C1CC[C@H](C(=O)N2CCCCC2)N1,inactive,inactive,inactive
COCC(=O)Nc1ccc2c(c1)OC[C@H](C)N(Cc1cccc(F)c1)C[C@@H](C)[C@@H](OC)CN(C)C2=O,inactive,inactive,inactive
C[C@@H]1CN([C@@H](C)CO)C(=O)c2cc(NC(=O)CCC(F)(F)F)ccc2O[C@@H](C)CCCCO[C@H]1CN(C)C(=O)NC1CCCCC1,inactive,inactive,inactive
C[C@H]1CN([C@@H](C)CO)C(=O)Cc2cc(NC(=O)C3CC3)ccc2O[C@H]1CN(C)S(=O)(=O)c1cccs1,inactive,inactive,inactive
O=C(C[C@@H]1CC[C@@H]2[C@H](COC[C@H](O)CN2S(=O)(=O)c2ccccc2F)O1)NCc1ccccc1F,inactive,inactive,inactive
COc1ccc(S(=O)(=O)N(C)C[C@H]2OCCCC[C@H](C)Oc3ccc(NS(C)(=O)=O)cc3C(=O)N([C@@H](C)CO)C[C@H]2C)cc1,inactive,inactive,inactive
OC[C@@H]1CC[C@@H]2O[C@H](CCc3ccc(C#Cc4ccccc4)cc3)[C@@H](n3cc(-c4ccccc4)nn3)C[C@@H]2O1,active,active,inactive

Compound,cytotoxicity call (HSkMC),cytotoxicity call (HepG2),growth inhibition call (S. aureus RN4220)
C[C@H](CO)N1C[C@H](C)[C@@H](CN(C)C(=O)Nc2ccccc2)Oc2ccc(NC(=O)Cn3cnnn3)cc2CC1=O,inactive,inactive,inactive
CC(C)C[C@@H](NC(=O)CCN)C(=O)O,inactive,active,inactive
COCCNC(=O)C[C@H]1CC[C@@H]2[C@H](COC[C@@H](O)CN2C(=O)Nc2ccccc2OC)O1,inactive,inactive,inactive
C[C@@H]1CN([C@@H](C)CO)C(=O)CCCn2nncc2CO[C@H]1CN(C)S(=O)(=O)c1cn(C)cn1,inactive,inactive,inactive
C[C@H](CO)N1C[C@H](C)[C@H](CN(C)Cc2ccc(-c3ccccc3)cc2)Oc2ccc(NC(=O)Nc3cccc4ccccc34)cc2C1=O,active,active,inactive
C[C@@H]1CN([C@@H](C)CO)C(=O)Cc2cc(NC(=O)Nc3ccccc3)ccc2O[C@@H]1CN(C)Cc1ccc(Oc2ccccc2)cc1,active,active,inactive
COC(=O)N/N=C/c1ccc([N+](=O)[O-])o1,inactive,inactive,inactive
CN1CCN(CCO)C(=O)C12CCN(S(=O)(=O)C1CC1)CC2,inactive,inactive,inactive
C[C@H](CO)N1C[C@H](C)[C@@H](CN(C)C(=O)CN2CCOCC2)Oc2cc(Br)ccc2S1(=O)=O,inactive,inactive,inactive
CSC1=N[C@@]2(C)CCCC[C@@H]2c2c1ccc1ccccc21,inactive,inactive,inactive
O=C(CCCCCNC(=O)OCc1ccc(CO[C@H]2C[C@@H](c3ccc(C(F)(F)F)cc3)C=C(C(=O)NC3CC3)O2)cc1)NO,inactive,inactive,inactive
NC[C@H]1CC[C@H](C(=O)O)CC1,inactive,inactive,inactive
C[C@@H]1CN([C@H](C)CO)S(=O)(=O)c2ccc(-c3ccc(C(=O)N(C)C)cc3)cc2O[C@@H]1CN(C)C(=O)C1CCOCC1,inactive,inactive,inactive
Cc1noc(C)c1NC(=O)N(C)C[C@H]1Oc2ccc(NS(C)(=O)=O)cc2CC(=O)N([C@@H](C)CO)C[C@@H]1C,inactive,inactive,inactive
CO[C@@H](CN(C)S(=O)(=O)c1ccc(F)cc1)[C@@H](C)CN([C@@H](C)CO)S(=O)(=O)c1cccc(Cl)c1,inactive,inactive,inactive
C[C@H](CO)N1C[C@H](C)[C@@H](CN(C)Cc2ccc(C(=O)O)cc2)Oc2c(NS(C)(=O)=O)cccc2C1=O,inactive,inactive,inactive
COc1ccc([Si](C)(C)[C@@H]2[C@@H](CCn3cc([C@H](O)c4ccccc4)nn3)O[C@]3(C(=O)N(Cc4ccc(N5CCC5=O)cc4)c4ccccc43)[C@H]2C)cc1,inactive,inactive,inactive
Cc1ccc(S(=O)(=O)N[C@@H](Cc2ccccc2)C(=O)NCCCn2cc(-c3ccccc3N)nn2)cc1,inactive,inactive,inactive
C[C@H](CO)N1C[C@H](C)[C@H](CN(C)C(=O)Nc2ccccc2)Oc2ccc(NC(=O)CCN3CCOCC3)cc2C1=O,inactive,inactive,inactive

Compound,cytotoxicity call (HSkMC),cytotoxicity call (HepG2),growth inhibition call (S. aureus RN4220)
COc1ccc(S(=O)(=O)Nc2ccc3c(c2)C(=O)N([C@@H](C)CO)C[C@@H](C)[C@@H](CN(C)Cc2ccc4c(c2)OCO4)OCCCC[C@@H](C)O3)cc1,inactive,inactive,inactive
C[C@@H]1CN([C@@H](C)CO)C(=O)Cc2cc(NS(=O)(=O)c3ccc(Cl)cc3)ccc2O[C@@H]1CN(C)Cc1ccc(Cl)c(Cl)c1,active,active,inactive
CC(C)C#Cc1ccc2c(c1)O[C@H](CN(C)C(=O)Cc1ccccn1)[C@H](C)CN([C@@H](C)CO)S2(=O)=O,inactive,inactive,inactive
Cc1noc(C)c1S(=O)(=O)Nc1ccc2c(c1)C(=O)N([C@@H](C)CO)C[C@@H](C)[C@H](CN(C)C)OCCCC[C@H](C)O2,inactive,inactive,inactive
CSc1nc(=O)c(C)n[nH]1,inactive,inactive,inactive
COCC#Cc1cnc2c(c1)C(=O)N([C@@H](C)CO)C[C@@H](C)[C@H](CN(C)C(=O)c1ccc3c(c1)OCO3)O2,inactive,inactive,inactive
C[C@@H]1O[C@@H](O[C@@H]2[C@@H](O)[C@H](C)O[C@@H](OC[C@H]3O[C@@H](Oc4c(-c5ccc(O)c(O)c5)oc5cc(O)cc(O)c5c4=O)[C@@H](O)[C@@H](O)[C@@H]3O)[C@@H]2O)[C@H](O)[C@H](O)[C@H]1O,inactive,inactive,inactive
C[C@H](CO)N1C[C@H](C)[C@@H](CN(C)S(=O)(=O)c2ccc(Cl)cc2)Oc2ccc(NC(=O)Nc3ccc(C(F)(F)F)cc3)cc2CC1=O,inactive,active,inactive
COc1ccc(NC(=O)Nc2ccc3c(c2)C(=O)N([C@@H](C)CO)C[C@@H](C)[C@H](CN(C)S(=O)(=O)c2ccccc2)OCCCC[C@@H](C)O3)cc1,inactive,inactive,inactive
CN1C(C(=O)Nc2ccccn2)=C(O)c2sc(Cl)cc2S1(=O)=O,inactive,inactive,inactive
C[C@@H]1CN([C@H](C)CO)C(=O)c2cc(NS(=O)(=O)c3cn(C)cn3)ccc2O[C@@H](C)CCCCO[C@H]1CN(C)C,inactive,inactive,inactive
COc1ccc(NC(=O)Nc2ccc3c(c2)C(=O)N([C@H](C)CO)C[C@H](C)[C@@H](CN(C)C(=O)Nc2ccc(C(F)(F)F)cc2)OCCCC[C@H](C)O3)cc1,inactive,inactive,inactive
C[C@@H]1CN([C@@H](C)CO)C(=O)c2cc(-c3cccc(C(=O)N(C)C)c3)cnc2O[C@H]1CN(C)S(=O)(=O)c1cccc(F)c1,inactive,inactive,inactive
N#CCSc1ncnc2c1cnn2CCO,inactive,inactive,inactive
C[C@@H]1CCCCO[C@H](CN(C)S(=O)(=O)c2cn(C)cn2)[C@@H](C)CN([C@@H](C)CO)C(=O)c2cc(NS(C)(=O)=O)ccc2O1,inactive,inactive,inactive
Cc1noc(C)c1NC(=O)Nc1ccc2c(c1)CC(=O)N([C@@H](C)CO)C[C@@H](C)[C@@H](CN(C)C(=O)NC(C)C)O2,inactive,inactive,inactive
O=C(C[C@@H]1CC[C@@H]2[C@H](COC[C@H](O)CN2C(=O)Nc2ccc(Cl)cc2)O1)NC1Cc2ccccc2C1,inactive,inactive,inactive
CCOC(=O)/C=C/C(=O)N1CCC=CC1=O,active,active,inactive
